Experimental data: publication PMC4336329 (PLoS ONE, 2015)
About 14,000 (4.5%) of roughly 310,000 compounds showed an effect of 50% or more. Effects have a minus sign here. The list shows a part of the results.

Target: human ether-à-go-go-related gene (hERG) potassium channel (human, UniProt Q12809)
Experiment: primary screen, population patch clamp on CHO cells stably expressing hERG
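Note: peak tail current of the secondary pulse compared with the same well before compound.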

Sequence of human ether-à-go-go-related gene (hERG) potassium channel (Q12809 whole entry, looked up): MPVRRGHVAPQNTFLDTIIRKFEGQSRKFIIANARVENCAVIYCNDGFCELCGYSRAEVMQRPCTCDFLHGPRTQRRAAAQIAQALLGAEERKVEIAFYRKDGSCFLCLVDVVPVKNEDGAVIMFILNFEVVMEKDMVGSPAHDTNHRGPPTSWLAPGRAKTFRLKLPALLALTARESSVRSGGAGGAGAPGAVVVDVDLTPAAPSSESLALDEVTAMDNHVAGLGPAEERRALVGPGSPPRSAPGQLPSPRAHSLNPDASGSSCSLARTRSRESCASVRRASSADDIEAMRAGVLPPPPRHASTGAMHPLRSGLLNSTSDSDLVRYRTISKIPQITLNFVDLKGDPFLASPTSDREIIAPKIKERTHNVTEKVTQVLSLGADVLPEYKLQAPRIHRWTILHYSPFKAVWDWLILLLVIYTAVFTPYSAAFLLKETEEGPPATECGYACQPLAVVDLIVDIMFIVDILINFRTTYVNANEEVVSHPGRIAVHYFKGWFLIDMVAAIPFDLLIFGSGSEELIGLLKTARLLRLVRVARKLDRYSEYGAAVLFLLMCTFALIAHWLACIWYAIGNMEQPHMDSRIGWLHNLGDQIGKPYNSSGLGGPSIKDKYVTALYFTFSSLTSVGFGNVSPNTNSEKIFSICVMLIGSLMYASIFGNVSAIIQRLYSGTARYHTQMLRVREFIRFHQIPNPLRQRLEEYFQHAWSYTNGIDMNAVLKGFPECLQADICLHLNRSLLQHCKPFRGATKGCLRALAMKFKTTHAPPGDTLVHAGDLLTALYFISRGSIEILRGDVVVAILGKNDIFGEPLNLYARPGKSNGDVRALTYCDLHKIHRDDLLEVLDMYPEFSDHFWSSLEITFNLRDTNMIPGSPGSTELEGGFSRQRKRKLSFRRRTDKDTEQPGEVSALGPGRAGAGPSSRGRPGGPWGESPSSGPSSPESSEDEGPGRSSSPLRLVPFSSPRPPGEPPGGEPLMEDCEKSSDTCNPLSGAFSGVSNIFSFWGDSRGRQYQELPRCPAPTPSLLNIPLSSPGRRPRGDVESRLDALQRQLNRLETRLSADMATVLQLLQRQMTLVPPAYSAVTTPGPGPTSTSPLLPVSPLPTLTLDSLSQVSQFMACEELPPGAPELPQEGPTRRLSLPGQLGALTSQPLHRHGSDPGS

SMILES | hERG current change (%, negative = inhibition) at 10uM [%]
COc1ccc2c(c1OC)C(=O)N(c1ccccc1)C2=O | 10.4
COc1ccc(-c2nnc3cccc(Cl)n23)c(OC)c1 | 17.7
N#CCN1CCCC(C(N)=O)C1 (centres unmarked) | 0.891
CCOCCCNCc1ccc(OCc2ccccc2C)c(OC)c1.Cl | -24.4
COCCn1c(SCC(=O)NCC2CCCO2)nc2c(c1=O)SCC2 (centres unmarked) | 15.6
O=C(NCCS(=O)(=O)N1CCN(c2ccccc2F)CC1)c1ccc(Br)cc1 | 4.45
CN1CCN(C(=O)C2CCN(c3ncnc4c3nc3n4CCCCC3)CC2)CC1 | 17.7
CCOC(=O)CSc1ccc(S(=O)(=O)N(C)C2CCCCC2)cc1[N+](=O)[O-] | 5.43
CC(C(=O)N1CCN(C(=O)c2ccco2)CC1)N1C(=O)NC2(CCCCC2C)C1=O (centres unmarked) | 6.81
CCCCC(CC)C(=O)Nc1cc([N+](=O)[O-])ccc1F (centres unmarked) | -15.8
O=c1[nH]c(CN2CCNCC2)nc2ccccc12 | -23.4
CN(C)C=O.O=C(CNC(=O)C12CC3CC(CC(C3)C1)C2)N1CCN(S(=O)(=O)c2cccs2)CC1 | 23.3
COc1ccc(N(CC(=O)N/N=C(\C)c2cccs2)S(=O)(=O)c2ccccc2)cc1Cl | -14.6
COc1ccc(-c2[nH]ncc2CN2CCCC(C(=O)c3cccc(OC)c3)C2)cc1 (centres unmarked) | -67.3
CC(C)c1ccc(S(=O)(=O)/N=C2\C=C(NS(=O)(=O)c3ccccc3)C(=O)c3ccccc32)cc1 | -29.5
CCN1CCN(C(=O)CCNC(=O)Cn2cnc3ccccc3c2=O)CC1 | 11.9
CCOC(=O)Cc1csc(NC(=O)CSc2nc(C)cc(=O)[nH]2)n1.Cl | -5.94
Cc1cc(OCc2nc(-c3ccncc3)no2)cc(C)c1Cl | 10.3
CC1CCCCN1S(=O)(=O)c1ccc(S(=O)(=O)NCCc2ccncc2)cc1 (centres unmarked) | -19.1
CN(CC(=O)Nc1ccccc1C(F)(F)F)C(=O)CSc1nc(N)cc(N)n1 | 16
Cc1nc(C)c(-c2nnc(-c3ccc(C(C)(C)C)cc3)o2)cc1C(=O)NN | -6.75
COc1ccccc1NC(=S)N/N=C/c1cccc(C)c1 | 15.4

SMILES | hERG current change (%, negative = inhibition) at 10uM [%]
OCC[NH+](CCO)CC(O)COc1ccc(Br)cc1.[Cl-] (centres unmarked) | -5.17
O=C(Cn1c(CO)nc2ccccc21)NCCc1ccc(F)cc1 | -3.46
O=C(Cc1ccccc1)NC(NCCc1ccccc1)C(Cl)(Cl)Cl (centres unmarked) | -20
COc1ccc(S(=O)(=O)NCC2CCCO2)c(Cl)c1Cl (centres unmarked) | -38.7
CCn1ncc(Cl)c1C(=O)NC(=S)Nc1c(C)cc(C)cc1[N+](=O)[O-] | -0.873
CCCCC(=O)NC(NC(=O)CCCC)c1ccc(OCCC)c(OC)c1 | -15.3
C[C@@H](NC(=O)c1nc[nH]c1C(=O)NCC(=O)OCc1ccccc1)c1ccccc1 | -16.6
O=C(O)c1ccc(C(=O)c2ccc3c(c2)C(=O)N(Cc2ccco2)C3=O)cc1 | 11.7
COC(=O)c1ccccc1NC(=O)CSc1nccn1C | 11.9
Cc1cc(C)n2ncc(C(=O)Nc3cccc(O)c3)c2n1 | 10.5
O=C(c1ccc2c(c1)OCO2)C1CCCN(Cc2ccc3cccc(F)c3n2)C1 (centres unmarked) | -87
Cc1ccc(SCC(=O)OCC(=O)NCc2cccs2)cc1 | 5.8
C=CCn1c(SCC(=O)c2ccc(Br)cc2)nnc1C(CC(C)C)NC(=O)c1cccs1 (centres unmarked) | -3.88
Cc1ccc(C(=O)N/C(=C\c2ccc(Cl)cc2)C(=O)NCCN2CCOCC2)cc1 | -75.1
COC(=O)c1cc2oc(C)cc2n1CC(=O)Nc1ccc(C)c(C)c1 | 6.32
Cc1ccc(S(=O)(=O)NC(C)(C)CSc2nncn2N)cc1 | 9.75
O=C1Nc2ccc(Br)cc2C(c2ccc(Cl)cc2)=NC1O (centres unmarked) | -56.5
Cc1ccc(/C(O)=C2\C(=O)C(=O)N(CC(C)O)C2c2ccccn2)cc1 (centres unmarked) | 15.5
O=[N+]([O-])c1ccc(O)c(C=Nc2ccc3oc(Cc4ccc(Cl)cc4)nc3c2)c1 | 11.8
CC(C)NC(=O)CN1C(=O)CSc2ccc(S(=O)(=O)N3CCCC3)cc21 | 15.6
COc1ccc(Nc2nc(-c3cccs3)cs2)c(OC)c1 | 4.09
O=C(Nc1ccccc1Oc1cccnc1)C1CCCN(C/C=C/c2ccc(F)cc2)C1 (centres unmarked) | -76.9

SMILES | hERG current change (%, negative = inhibition) at 10uM [%]
Cc1cc(S(=O)(=O)N(Cc2ccc(C(C)C)cc2)CC2CCCO2)ccc1-n1cnnn1 (centres unmarked) | -6.44
Cc1ccc(S(=O)(=O)C(C#N)c2nc3ccccc3nc2N2CCN(C)CC2)cc1C (centres unmarked) | -9.18
Cc1cc(C)n2ncc(C(=O)NCc3ccc(Cl)cc3)c2n1 | -14.9
C=CCOCCN(C)C1=NS(=O)(=O)c2ccccc21.Cl | 16
COc1ccccc1C1C(C(C)=O)=C(C)N=c2s/c(=C\c3cc(OC)c(OC)c(OC)c3)c(=O)n21 (centres unmarked) | 2.96
CCOc1cc2[nH]c(=S)n(CCCC(=O)N3CCC4(CC3)OCCO4)c(=O)c2cc1OCC | 16.2
CCCn1cnc2c1c(=O)n(CCCCC(C)=O)c(=O)n2C | -4.29
CC(C(=O)NCc1cccs1)N1C(=O)c2ccccc2C1=O (centres unmarked) | -5.43
COc1cc(NC(=O)c2cccc([N+](=O)[O-])c2)ccc1NC(=O)c1cc2ccccc2o1 | 15
Cc1cc(=O)[nH]c2ccc(S(=O)(=O)N3CCOCC3)cc12 | 8.33
COc1ccc(C(=O)N/N=C/c2ccc(OC)c(COc3c(F)c(F)cc(F)c3F)c2)cc1 | 16.5
Cc1cc(NCc2ccco2)nc(N2CCC(C(=O)NC3CCCCC3)CC2)n1 | -71.1
O=C(CSc1nnc(SCC(=O)c2ccco2)s1)c1ccco1 | -18.8
O=C1CN(c2nc3ccccc3n3cnnc23)CC(=O)N1CCc1ccccc1 | -8.65
C=CCN(C(=O)Nc1ccc2c(c1)nc(C)n2C)c1ccccc1 | 3.69
O=C(NC(=S)Nc1cc(Cl)ccc1N1CCOCC1)c1ccc(-c2cccc(Cl)c2)o1 | 8.91
Cc1ccc(SCC(=O)OCC(=O)NCCc2ccccc2)cc1C | -2.77
COc1ccc(N(CC(=O)Nc2ccccc2F)S(=O)(=O)c2ccc(OC)c(OC)c2)cc1 | -24.2
CC(NC(=O)c1ccc(S(=O)(=O)NCc2ccco2)cc1)c1ccc(F)cc1 (centres unmarked) | 1.15
O=C(COC(=O)CCCNC(=O)c1ccc(Cl)cc1)Nc1cc(Cl)c(Cl)cc1Cl | 12.7
COc1ccc(C(=O)NC(C)c2ccc(-n3ccnc3)cc2)c(OC)c1 (centres unmarked) | -53.8
O=C1N(c2ccccc2C(F)(F)F)O[C@]1(c1ccccc1)C1CCCC1 | 4.39

SMILES | hERG current change (%, negative = inhibition) at 10uM [%]
CCC(NC(=O)c1ccccc1NC(=O)C(C)(C)C)C(=O)N1CCCC1 (centres unmarked) | 9.31
CCOC(=O)Cn1c(=O)c2c(nc3n2CCCCN3c2ccc(OCC)cc2)n(C)c1=O | -41.4
COc1ccc(OC)c(NC(=O)C(=O)N/N=C(\C)CC(=O)Nc2ccc(Cl)cn2)c1 | -1.6
COc1cc(/C=N/Nc2nnc3c(n2)[nH]c2ccccc23)ccc1O | 4.59
Fc1ccc(-c2cc3nc4c(c(N5CCOCC5)n3n2)CCCC4)cc1 | -1.71
Cc1ccc(-c2nn(Cc3ccccc3)cc2C=O)cc1C | -13.9
CCN1CCN(C(C(=O)NC2CCCC2)c2ccc(Cl)cc2)CC1 (centres unmarked) | -14.8
O=C(CNC(=O)c1ccco1)NCC(=O)OCc1ccc(C(=O)Oc2ccc(Cl)cc2)cc1 | 9.73
CCn1c(SCC(=O)Nc2ccccc2OC)nc(O)cc1=O | 7.14
COc1ccc(-n2cc(CNCCCn3ccnc3)c(-c3ccccc3Cl)n2)cc1 | -44.9
Cn1cnc(C(=O)N2CCN(c3ccccc3)CC2)c1C(=O)N1CCN(c2ccccc2)CC1 | 2.1
CN(C)N1C(N)=C(C#N)C(c2ccc3c(c2)OCO3)C2=C1CCCC2=O (centres unmarked) | -18.7
Cc1ccc(-n2nnnc2-c2cnc(-c3cccnc3)nc2C(F)(F)F)cc1 | -11.7
Cc1cccc(C(=O)OC2CCOC2=O)c1C (centres unmarked) | 7.35
O=C(O)/C=C/C(=O)c1ccc2c(c1)CCc1ccccc1-2 | -4.88
Cc1cnc(C(=O)OC(C(=O)c2ccccc2)c2ccccc2)cn1 (centres unmarked) | 11.1
COc1ccc(N=c2ssnc2Cl)cc1 | 24.1
COc1ccc([C@H]2CC(=O)C=C(c3cc(C=O)ccc3OC)C2)cc1OC | -40.6
COC(=O)CSC1=C(C#N)C(c2ccc(C(C)C)cc2)CC(=O)N1 (centres unmarked) | 4.22
CN1C2CCC1/C(=C\c1ccccc1F)C(=O)/C2=C/c1ccccc1F | -12.4
